About 650 (41%) of roughly 1,600 compounds were called active. The set was probably picked from earlier hits. The shares of active, inactive and inconclusive entries below differ from those in the screen. Calls come from the whole dose curve; as a rule, active = well fitted inhibition curve with a large enough effect; inconclusive = small, poorly fitted or top-dose-only effect; inactive = no such curve, though single readings can be large or run the other way. Potencies of inconclusive entries are left out as doubtful fits.
Test: qHTS for Inhibitors of TGF-b: CCL64 Cells Orthogonal Assay for Cherry Picks; note: nearly all actives have a fitted effect of over 65% in size;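 for activity, negative = inhibition: 0% = stimulated DMSO wells and full inhibition = unstimulated wells without TGF-beta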
Conditions: CCL64 CAGA-GFP reporter, TGF-b stimulated, GFP fluorescence, 18 h; activity, negative = inhibition: at 46.1 µM (top of the series)
Outline: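 Readout was total-well GFP fluorescence from summed single-cell values after 18 h TGF-beta stimulation (500 pg/mL) of CCL64 CAGA-GFP cells in 1% FBS, compounds added 2 h after plating. Normalized to unstimulated and stimulated-DMSO wells; curves classified by fit quality and efficacy.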
Potency is the fitted concentration of half-maximal effect; tags give direction and shape of the fitted curve.

SMILES	Potency	activity, negative = inhibition
Cc1ccc(NC(=O)c2ccc([N+](=O)[O-])s2)cc1S(=O)(=O)N1CCOCC1	inconclusive [inhibitor, partial curve]	–
CC(=O)Oc1c(Br)cc(N(C(C)=O)S(=O)(=O)c2ccccc2)c2ccccc12	active: 13 µM	–
COc1ccc(CNC(=O)C[C@H]2C[C@H](C(=O)N(C(C)C)C(C)C)[C@@]3(C)c4[nH]c5ccc(Cl)cc5c4CCN3C2=O)cc1OC	inconclusive [inhibitor, single point]	–
CC1Sc2ccc(S(=O)(=O)CCC(=O)N3CCN(c4cccc(Cl)c4)CC3)cc2NC1=O (stereo not given)	inconclusive [inhibitor, single point]	–
COCCNc1nc(NCc2ccccc2)nc2ccsc12	active: 4.11 µM	–
O=C(c1[nH]nc2c1CCc1ccccc1-2)N1CCN(Cc2ccc3c(c2)OCO3)CC1	inconclusive [inhibitor, single point]	–
CC(=O)Nc1nc(C)c(-c2csc(Nc3cccc([N+](=O)[O-])c3)n2)s1	–	inconclusive: -26.9% [inhibitor]
O=C(NCc1nnc(SCc2ccc(F)cc2)n1-c1ccc(F)cc1)C12CC3CC(CC(C3)C1)C2	inconclusive [inhibitor, single point]	–
CCc1ccccc1NC(=S)/N=C(\N)Nc1nc(C)c2cc(C)ccc2n1	inconclusive [inhibitor, full curve]	–
Cc1cc(NC(=O)c2ccc([N+](=O)[O-])o2)ccc1NC(=O)c1ccco1	inconclusive [inhibitor, partial curve, poor fit]	–
Cc1ccc(NC(=O)C(C)c2ccc(-c3ccccc3)c(F)c2)cc1 (stereo not given)	inactive	–
O=C(NCc1ccncc1)c1ccc2nc(Cc3ccccc3F)oc2c1	inactive	–
OCCCn1c(C(CO)Nc2nc(-c3ccc(Cl)cc3)cs2)nc2ccccc21 (stereo not given)	inconclusive [inhibitor, single point]	–
CC1CCN(C(=O)c2[nH]cnc2C(=O)NCc2ccc(CNC(=O)OC(C)(C)C)cc2)CC1	inactive	–
COc1ccc(C(=O)NN(C)c2nc(C(F)(F)F)nc3ccccc23)cc1	inconclusive [inhibitor, full curve, poor fit]	–
CN(C)c1ncnc2c1ncn2C1OC(CO)C(O)C1O (stereo not given)	inconclusive [inhibitor, partial curve, poor fit]	–
Cc1ccc(S(=O)(=O)N2CCN(C(=O)c3ccccc3Cc3ccccc3)CC2)c(C)c1	inconclusive [inhibitor, single point]	–
CNC(=S)N/N=C/C1=CCC2CC1C2(C)C (stereo not given)	inconclusive [inhibitor, single point]	–
CCCn1nc2cc(C(=O)NCCc3cccs3)ccc2c1OCC	inactive	–
O=C1C(NS(=O)(=O)c2cccs2)=C(N2CCN(Cc3ccccc3)CC2)C(=O)c2ccccc21	inactive	–

SMILES	Potency	activity, negative = inhibition
Nc1ncnc2c(C3OC(CO)C(O)C3O)scc12 (stereo not given)	active: 0.92 µM	–
CCc1nc2ccc(C(=O)N3CCN(c4cccc(C(F)(F)F)c4)CC3)cc2nc1CC	inconclusive [inhibitor, single point]	–
CC1=C(CO)C(=O)OC([C@@H](C)C2CC[C@H]3C4C[C@H]5O[C@]56[C@@H](O)C=CC(=O)[C@]6(C)C4CC[C@]23C)C1 (stereo not given in full)	active: 1.16 µM	–
COc1ccccc1NC(=O)c1cc2cc(Br)ccc2cc1O	active: 5.8 µM	–
O=C1C=C(N2CCN(c3ccccn3)CC2)C(=O)c2c(O)ccc(O)c21	inconclusive [inhibitor, full curve, poor fit]	–
O=C1OCCN1C(=O)[C@H]1[C@H](c2ccc([N+](=O)[O-])cc2)C(c2cccc(Cl)c2)=NN1c1ccccc1	inactive	–
COc1ccc(OC)c(C2SCCN2S(=O)(=O)c2cccc(C(F)(F)F)c2)c1 (stereo not given)	inactive	–
COc1cc(Cl)ccc1OCc1cc(C(=O)N(C)Cc2cccc3cnccc23)no1	inconclusive [inhibitor, single point]	–
COc1cc(/C=C(/C(=O)c2cccs2)c2nc3ccccc3[nH]2)ccc1O	active: 13 µM	–
COc1cc(/C=N/n2cc(-c3ccccc3)[nH]c2=S)cc(OC)c1O	inactive	–
CCN(CC(O)Cn1c2ccccc2c2ccccc21)S(=O)(=O)c1ccc(C)cc1 (stereo not given)	inconclusive [inhibitor, single point]	–
Cc1nn(-c2ccccc2)c(C)c1/C=N/NC(=O)CSc1nc2ccccc2c(=O)n1-c1ccccc1	–	inconclusive: -31.2% [inhibitor]
Cc1cccc(N2CCN(C(=O)c3ccc(S(=O)(=O)N(C)c4ccccc4)cc3)CC2)c1C	inconclusive [inhibitor, partial curve, poor fit]	–
CC(=O)O[C@@H](C[C@@H](C)C1=C2C[C@H](O)C3[C@@]4(C)CCC(=O)C(C)(C)C4CC[C@]3(C)[C@@]2(C)CC1)[C@H]1OC1(C)C (stereo not given in full)	inconclusive [inhibitor, partial curve, poor fit]	–
CC(C)(C)c1ccc(S(=O)(=O)N2CCC(c3nc4ccc(Cl)cc4[nH]3)CC2)cc1	inconclusive [inhibitor, partial curve, poor fit]	–
NC(=O)CC(NC(=O)c1ccccc1)c1ccc(N2CCC(Cc3ccccc3)CC2)c([N+](=O)[O-])c1 (stereo not given)	inconclusive [inhibitor, single point]	–
Cc1cc(N2CCN(c3ccccc3)CC2)n2cc(-c3ccccc3)nc2n1	inactive	–
CCCCCC(=O)Nc1cccc(C2=NOC3(C2)C[C@H](C(N)=O)N(C(=O)c2ccccc2C(=O)c2ccccc2)C3)c1 (stereo not given in full)	inconclusive [inhibitor, single point]	–
O=S(Cc1ccc(Br)cc1)Cc1nnc(SCc2ccc(Br)cc2)n1-c1ccccc1 (stereo not given)	inconclusive [inhibitor, single point]	–
O=[N+]([O-])c1c(Nc2ccc(O)cc2)cc(Cl)c2nonc12	active: 2.91 µM	–

Reference: PubChem BioAssay AID720536 (National Center for Advancing Translational Sciences (NCATS), 2013)
